Laboratory results reported in PubChem BioAssay AID488969 (Vanderbilt High Throughput Screening Facility, 2010).
Whole data set: some 110,000 compounds, median “z-score” near -0.1, cut for the highest 2% near 2. This is one part of the list.

biological target: Metabotropic glutamate receptor 8 (Rattus norvegicus) (UniProt P70579); assay: rat mGluR8 modulators via GIRK flux, primary screen, cell-based, thallium flux, HTS (AID 488969); conditions: HEK293 rat mGluR8, GIRK (G protein-gated inwardly rectifying potassium channel) thallium flux, FluoZin2; at 10 µM; stronger effect = higher value; submaximal glutamate (EC20) added with thallium
Chain of UniProt P70579 (P70579 whole entry, looked up): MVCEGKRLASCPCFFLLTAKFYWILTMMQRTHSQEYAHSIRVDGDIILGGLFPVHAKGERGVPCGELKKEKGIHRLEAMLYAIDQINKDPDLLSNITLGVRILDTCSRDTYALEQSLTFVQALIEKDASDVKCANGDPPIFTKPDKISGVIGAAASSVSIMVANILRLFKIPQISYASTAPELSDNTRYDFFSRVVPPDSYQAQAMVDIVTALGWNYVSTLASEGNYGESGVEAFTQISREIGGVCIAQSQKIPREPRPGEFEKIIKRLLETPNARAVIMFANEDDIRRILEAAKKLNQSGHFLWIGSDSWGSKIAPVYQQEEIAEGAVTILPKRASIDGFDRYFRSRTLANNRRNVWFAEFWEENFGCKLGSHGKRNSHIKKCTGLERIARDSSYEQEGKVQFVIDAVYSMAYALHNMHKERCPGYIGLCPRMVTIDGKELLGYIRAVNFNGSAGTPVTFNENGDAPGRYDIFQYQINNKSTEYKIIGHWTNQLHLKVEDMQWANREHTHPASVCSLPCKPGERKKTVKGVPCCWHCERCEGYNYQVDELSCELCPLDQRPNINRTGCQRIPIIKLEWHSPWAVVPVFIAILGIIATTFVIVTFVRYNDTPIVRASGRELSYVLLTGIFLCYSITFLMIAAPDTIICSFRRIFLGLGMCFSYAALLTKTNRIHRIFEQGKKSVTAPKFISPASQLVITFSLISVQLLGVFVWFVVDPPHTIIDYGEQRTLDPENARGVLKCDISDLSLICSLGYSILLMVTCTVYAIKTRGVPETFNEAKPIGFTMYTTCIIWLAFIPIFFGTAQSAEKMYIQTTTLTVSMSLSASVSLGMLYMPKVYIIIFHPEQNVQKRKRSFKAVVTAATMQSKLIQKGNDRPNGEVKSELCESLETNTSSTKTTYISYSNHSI

SMILES	z-score
Cc1cc(N/C=C\c2nnnn2-c2ccccc2)no1	-0.374
COc1c(C)cc(S(=O)(=O)N2CCCC2)c(C)c1C	-0.203
CSc1nc2n(n1)C(c1ccccn1)C1=C(CC(C)(C)CC1=O)N2 (stereo unspecified)	0.0637
[O-]/[N+](=C\c1ccccc1)[C@@H]1CCCC[C@@H]1/[N+]([O-])=C/c1ccccc1	-0.0225
Oc1ccccc1/C=N/n1c2ccccc2c2ccccc21	-0.000452
Cc1ccc2c(c1)-c1c(cnn1CC(=O)N(CCC#N)c1ccccc1)CO2	-0.347
Cc1cccc(OCc2ccc(C(=O)Nc3ccc(F)cc3)cc2)c1	0.135
CC(=O)C(=Nc1ccccc1Cl)NNc1ccc(Cl)cc1	1.22
Cc1ccc2c(C)c(C(=O)Nc3cccnc3)oc2c1	-0.755
Brc1ccc2[nH]ncc2c1	0.11
c1ccc(C2(Cn3ccc4ccccc43)OCCO2)cc1	-0.312
Cc1nc2ccccc2nc(C)c1=NOCc1ccc(Cl)cc1Cl	0.00903
Clc1cccc(-c2nnc(-c3ccccc3)o2)c1	-0.158
CC1=CC(C)=Nc2ccc(C)cc2N1	0.00926
COc1ccc(S(=O)(=O)N2CCC(C(=O)N3CCCCC3)CC2)cc1OC	0.0946
COc1cc(C2C=C(Nc3ccccc3)C(=O)N2c2ccccc2)ccc1O (stereo unspecified)	-0.176
CCCN1C(=O)CC(C(=O)OC)=C1C	0.406
c1ccc(-c2nccc(-c3ccc(-n4cnc5ccccc54)cc3)n2)nc1	-0.492
C/C(N)=C(/C#N)C(=O)CSc1nnc(SCc2ccc(Cl)cc2)s1	0.419

SMILES	z-score
O=C(COC(=O)C1COc2ccccc2O1)NC(=O)Nc1ccc2c(c1)OCCO2 (stereo unspecified)	-0.545
CC1(C)N([O-])C(c2ccccc2)=C[N+](=O)C1(C)C	-0.0764
COc1ccc(-c2csc(NC(=O)c3cc(-c4cccs4)nc4ccccc34)n2)c(OC)c1	-0.102
CC1CCCCC1NC(=O)/C(C#N)=C/c1ccccc1F (stereo unspecified)	-0.268
O=C(O)COc1ccccc1C(Nc1ccccn1)c1cc(Cl)c2cccnc2c1O (stereo unspecified)	-0.314
Cc1nn(CCCC(=O)Nc2cc(Oc3ccccc3)cc([N+](=O)[O-])c2)c(C)c1[N+](=O)[O-]	0.196
CC(NS(=O)(=O)c1ccc(CCC(=O)N2CCN(C)CC2)cc1)c1ccccc1 (stereo unspecified)	-0.349
Cc1ccc(C23CC4CC(CC(CC(=O)N5CCOCC5)(C4)C2)C3)cc1	0.0728
COC(=O)c1c[nH]n2c(=O)cc(CCl)nc12	-0.195
O=C(O)CSCc1ccc(C(=O)O)o1	0.0165
CC(C)CC(C(=O)NCC1CCCO1)N(C(=O)Cn1nnc(-c2ccc(F)cc2)n1)c1cccc(C(F)(F)F)c1 (stereo unspecified)	-0.289
Cc1ccccc1OCc1nc(-c2ccc(-n3cccc3)cc2)no1	0.0241
COc1cc(C(=O)Nc2ccccc2C2COC(=O)C2=N)cc(OC)c1OC (stereo unspecified)	0.336
Cc1ccc(C2NC(=O)c3c(sc4c3CCN(C)C4)N2)o1 (stereo unspecified)	-0.0144
COc1cc(S(=O)(=O)N2CCN(c3ccccc3F)CC2)c(OC)cc1Cl	-0.354
COC(=O)c1ccccc1N1C(=O)[C@@H]2C(c3ccc(Br)cc3)=NO[C@@H]2C1=O	-0.236
CC1CN(S(=O)(=O)N(C)C)CCN1S(=O)(=O)N(C)C (stereo unspecified)	-0.225
O=C(NC1CC1)c1c[nH]c2ccc(S(=O)(=O)Nc3cccc(C(F)(F)F)c3)cc2c1=O	-0.0343
CN(C)S(=O)(=O)N1CCN(c2cccc(Cl)c2)CC1	0.0618

SMILES	z-score
Cc1ccc(S(=O)(=O)N(CC(=O)Nc2cccc([N+](=O)[O-])c2)C2CCCCC2)cc1	-0.327
Cc1ccc(S(=O)(=O)Oc2ccc(/C=N/NC(=O)c3nn(C)cc3Cl)cc2)cc1	-0.86
O=C(Cn1c(=O)n2ncnc2c2c3c(sc21)CCCC3)c1ccccc1	-0.405
CCSc1nnc(NC(=O)CCc2ccccc2)s1	-0.278
COc1ccc(/C(C)=N/OCC(=O)N=Nc2c(O)[nH]c3ccccc23)cc1	-0.165
CCOC(=O)CSc1nnc(CNC(=O)c2cccs2)n1Cc1ccccc1	-0.0719
CCOC(=O)C1=C(Nc2ccccc2)CC(C)(O)C(C(=O)OCC)C1c1ccccc1 (stereo unspecified)	-0.208
CC(C)C(=O)Nc1nc(-c2ccccc2)ns1	0.375
COc1ccc(CCNC(=O)CSc2nc(N)c3c(C)c(C)oc3n2)cc1OC	0.607
Nc1ccc(C(=O)OCc2nc3c(ccc4ccccc43)[nH]2)cc1	-0.0803
CCn1c(SCC(=O)Nc2ccccc2N2CCOCC2)nnc1-c1ccccc1	-0.529
COC(=O)CSc1nc(C)c(C(=O)Nc2ccccc2C)c(-c2ccc(Cl)cc2)c1C#N	-0.236
COC(=O)c1ccc(S(=O)(=O)N2CCCC2)o1	-0.42
O=C(O)CCc1nn2c3ccccc3n(CCN3CCCCC3)c2nc1=O	0.0258
CC(C)CC(C(=O)NC1CCCC1)N(Cc1cccs1)C(=O)c1snc(C(N)=O)c1N (stereo unspecified)	-1.07
CNc1nnc(-c2ccc(N(C)C)cc2)s1	-0.187
C=C1Cn2c(nnc2-c2ccc(Cl)cc2)S1	-0.195
O=C1CCCC(O)=C1C1C2=C(CCCC2=O)Oc2ccccc21 (stereo unspecified)	-0.42
